Assay results from PubChem BioAssay AID652104 (National Center for Advancing Translational Sciences (NCATS), 2013).
Among all 410,000 compounds or so, about 7,200 (1.8%) were called active. This list was built around the results that the source calls inconclusive (neither active nor inactive); the mix of calls is not that of the screen. Calls come from the whole dose curve; as a rule, active = well fitted activation curve with a large enough effect; inconclusive = small, poorly fitted or top-dose-only effect, or another doubt; inactive = no such curve, though single readings can be large or run the other way. Potencies of inconclusive entries are left out as doubtful fits.

assay: qHTS of TDP-43 Inhibitors; conditions: TDP-43 expressing yeast growth rescue, BacTiter-Glo, 24 h; growth rescue (activation): at 46.1 µM (top of the series); note: nearly all actives have a fitted effect of over 50% in size; for growth rescue (activation): % of control where 0% means no effect
In short: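 Cell-based yeast growth screen: TDP-43 expression induced in galactose, inoculum OD600=0.02 after raffinose pregrowth to mid-log. Read-out BacTiter-Glo luminescence at 24 hr, 30 deg C; inhibition of toxicity seen as signal increase.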
Potency is the fitted concentration of half-maximal effect; tags give direction and shape of the fitted curve.

SMILES | Potency | growth rescue (activation)
COc1ccc(-n2c(-c3ccccc3F)nc3ccccc3c2=O)cc1 | inconclusive [activator, partial curve, poor fit] | 
C=C1C(O)(c2ccccc2)C2CC[N+]1(C)CC2 (configuration not stated) |  | inactive: -7.5%
COC(=O)C1=C(c2ccccc2OCc2ccccc2)C[C@@H]2CC[C@H]1N2C(=O)NCCOc1ccc(OC)cc1 | inconclusive [activator, single point] | 
CC1CC(C)(O)CC(C(O)CC2CC(=O)NC(=O)C2)C1=O (configuration not stated) |  | inconclusive: -72.6% [activator]
O=S(=O)(c1ccc(Cl)cc1)N1CC1c1ccccc1 (configuration not stated) | inconclusive [activator, full curve, poor fit] | 
COC(=O)C1=C(c2ccc(OC(F)(F)F)cc2)C[C@@H]2CC[C@H]1N2C(=O)N1CCOCC1 | inconclusive [activator, partial curve] | 
COc1cccc(NC(=O)N2CCc3nc(Nc4ccc(C(C)C)cc4)ncc3C2)c1 | active: 12.6 µM | 
COC(=O)C1=C(c2ccc3ccccc3c2)C[C@@H]2CC[C@H]1N2C(=O)NC1CCCCC1 | inconclusive [activator, single point] | 
Cc1cccc(Cn2c(SCc3ccc(C(=O)NC4CCCCC4)cc3)nc3cccnc32)c1 | inconclusive [activator, partial curve] | 
Cc1ccc(C(c2nnnn2Cc2ccccc2)N2CC=C(c3ccc(F)cc3)CC2)cc1 (configuration not stated) |  | inactive: -4.22%
Cc1oc(-c2ccccc2)nc1CN1C(=O)C(C)N=C(c2ccccc2F)c2cc(Cl)ccc21 (configuration not stated) | inconclusive [activator, single point] | 
CCC(=NC(C)c1ccccc1)c1c(O)n(C)c(=O)n(C)c1=O (configuration not stated) | inconclusive [activator, partial curve] | 
O=S(=O)(c1ccc(Cl)cc1)N1CCCCC1c1cccnc1 (configuration not stated) | inconclusive [activator, single point] | 
CC[C@@H](C(=O)[C@@H](C)[C@@H](O)[C@H](C)[C@@H]1O[C@@H]([C@@H](CC)C(=O)O)CC[C@@H]1C)[C@H]1O[C@]2(C=C[C@@H](O)[C@]3(CC[C@@](C)([C@H]4CC[C@](O)(CC)[C@H](C)O4)O3)O2)[C@H](C)C[C@@H]1C | inconclusive [activator, full curve] | 
COc1ccc(N2C(=O)/C(=C/C=C/c3ccccc3[N+](=O)[O-])C(=O)NC2=S)cc1 |  | inconclusive: -91.4% [activator]
CCCSc1nc(O)c(CC)c(=O)n1C(C)CC (configuration not stated) | inconclusive [activator, single point] | 
O=C(CN1CCN(C(=O)CNC(=O)c2ccc(-c3ccccc3)cc2)CC1)Nc1ccccc1Cl | inconclusive [activator, partial curve] | 
CC(C)OC(=O)c1c(N)n(CC2CCCO2)c2nc3ccccc3nc12 (configuration not stated) |  | inactive: -10.3%
C[C@]12CC[C@H](O)C[C@@H]1CC[C@@H]1[C@@H]2CC[C@]2(C)[C@@H](C(=O)O)C[C@@H]12 | inconclusive [activator, partial curve] | 
O=C1C=CC2C3C(=O)N(c4ccccc4)C(=O)C3C1N2Cc1ccccc1 (configuration not stated) | active: 12.6 µM | 
Cc1ccc(-n2c(/C=C/c3ccccc3)nc3ccccc3c2=O)cc1Cl | inconclusive [activator, full curve, poor fit] | 

SMILES | Potency | growth rescue (activation)
CC(=O)Nc1ccccc1C(=O)OCC(=O)c1cccc2ccccc12 | inconclusive [activator, partial curve] | 
O=C(COC(=O)c1ccc(O)cc1)Nc1ccc(Cl)cc1C(=O)c1ccccc1 | inconclusive [activator, partial curve] | 
CCOC(=O)c1ccc(N2C(=O)CC(N3CCC(O)(c4ccc(Br)cc4)CC3)C2=O)cc1 (configuration not stated) | inconclusive [activator, partial curve] | 
CC(=O)OC1C(=O)OCC23CCC4(C)OC4C2OC2CC(OC(=O)C=CC=CC(=O)OCCC1C)C3(C)C21CO1 (configuration not stated) |  | inconclusive: -91.7% [activator]
CC1=NCCc2c1[nH]c1ccccc21 | inconclusive [activator, full curve, poor fit] | 
COc1ccc2sc(N(Cc3cccnc3)C(=O)c3ccco3)nc2c1 | inconclusive [activator, partial curve] | 
CCOc1ccc(N2CC(c3nc4ccccc4n3CCC3CCCCC3)CC2=O)cc1 (configuration not stated) | active: 25.1 µM | 
COc1cccc(N2C(=O)NC(=O)/C(=C/c3ccc4c(c3)Cc3ccccc3-4)C2=O)c1 | inconclusive [activator, single point] | 
COC(=O)C1=C(c2c(C)noc2C)C[C@@H]2CC[C@H]1N2C(=O)N1CCC(O)(c2ccc(Cl)cc2)CC1 | inconclusive [activator, full curve] | 
Cc1cccc(-n2c(O)c(/C=C3/C(c4ccccc4)=Nc4ccccc43)c(=O)[nH]c2=O)c1 | inconclusive [activator, single point] | 
CSc1ccccc1NC(=O)CN(C)CC(=O)c1[nH]c(C)c(C(C)=O)c1C | inconclusive [activator, single point] | 
Cc1ccc(N)c(N)c1 | inconclusive [activator, partial curve, poor fit] | 
O=[N+]([O-])c1ccc(S(=O)(=O)N2CCn3cccc3C2c2ccccc2F)cc1 (configuration not stated) | active: 22.4 µM | 
Cc1ccc(C)c(N2CCN(c3nc4ccc(Cl)cc4n4cnnc34)CC2)c1 | inconclusive [activator, partial curve, poor fit] | 
CC12CCC3C(CCCC4CC(=O)CCC43C)C1CCC2O (configuration not stated) |  | inactive: 22.9%
O=[N+]([O-])c1ccc(C(c2ccc([N+](=O)[O-])cc2)c2ccc([N+](=O)[O-])cc2)cc1 |  | inactive: -19.3%
COC(=O)C1=C(c2ccc(OC(F)(F)F)cc2)C[C@@H]2CC[C@H]1N2C(=O)NC1CCCCC1 | active: 17.8 µM | 
O=C(CCC(=O)N1CCOc2ccc(Cl)cc21)N1CCC2(CC1)OCCO2 |  | inactive: 5.42%
O=C(c1ccc2c(c1)N(Cc1ccc(F)cc1Cl)C(=O)c1ccccc1S2)N1CCC2(CC1)OCCO2 | active: 17.8 µM | 
O=S(=O)(c1ccc(Cl)cc1)N1Cc2cc(Br)ccc2-n2nncc2C1 | active: 20 µM | 
O=C(CN1CCOCC1)c1cccc2ccccc12 |  | inactive: 6.28%

SMILES | Potency | growth rescue (activation)
CC(C)CC1C(C#N)=C(N)Oc2c1c(=O)oc1ccccc21 (configuration not stated) | inconclusive [activator, partial curve, poor fit] | 
CCCCc1nc2ccccc2c(=O)n1-c1cccc(OC)c1 | inconclusive [activator, single point] | 
C[C@]12CCC3C(CC[C@@H]4[C@H]5O[C@H]5CC[C@]34C)C1CC[C@@H]2O (some centres not stated) | inconclusive [activator, single point] | 
CCC(=Nc1ccc(OC)cc1OC)c1c(O)n(C2CCCCC2)c(=O)[nH]c1=O | active: 15.8 µM | 
N=C(N)c1c(O)n(C2CCCCC2)c(=O)n(C2CCCCC2)c1=O | inconclusive [activator, partial curve] | 
O[C@H]1[C@H](O)[C@@H](O)CN2CC[C@H](O)[C@H]12 | inconclusive [activator, full curve, poor fit] | 
O=C(c1ccc2c(c1)N(Cc1ccccc1)CCS2)N1CCC2(CC1)OCCO2 | inconclusive [activator, partial curve] | 
C=C(C)[C@@H]1[C@H]2OC(=O)[C@H]1[C@]1(O)C[C@H]3O[C@]34C(=O)O[C@H]2[C@]14C | inconclusive [activator, full curve] | 
O=[N+]([O-])c1ccc(N2CCCC(C(F)(F)F)C2)c2ccncc12 (configuration not stated) | inconclusive [activator, single point] | 
COc1cc(/C=C/c2nc3ccccc3c(=O)n2-c2ccc(Br)c(C)c2)ccc1O | inconclusive [activator, partial curve] | 
O=c1c2ccccc2nc(-c2ccc(-c3ccccc3)cc2)n1-c1ccncc1 | inconclusive [activator, single point] | 
COC(=O)COc1ccc(/C=C2\C(=O)NC(=S)N(c3ccc(C)cc3)C2=O)cc1OC |  | inactive: 15.6%
Cc1ccc2nc(Cl)c(-c3ccccc3)cc2c1 | inconclusive [activator, single point] | 
COC(=O)C1=C(c2cc3ccccc3s2)C[C@@H]2CC[C@H]1N2C(=O)NCc1ccc(F)cc1 | active: 10 µM | 
CN1C(=O)C(=Cc2ccccc2Oc2ccc(Cl)c(F)c2)C(=O)N(C)C1=O | active: 22.4 µM | 
CCOC(=O)c1cccc(C2=C(CNC(=O)c3ccncc3)[C@H]3CC[C@@H](C2)N3Cc2ccccc2)c1 |  | inactive: 16.2%
Cc1nc2c(-c3ccccc3)c(C)nn2c(C)c1CCC(=O)N1CCC2(CC1)OCCO2 | inconclusive [activator, single point] | 
Cc1cccc(C)c1-n1nnnc1C(CCc1ccccc1)N1CCC(n2c(=O)[nH]c3ccccc32)CC1 (configuration not stated) | inconclusive [activator, full curve] | 
CCOc1ccc(S(=O)(=O)NCCc2sc3nc(-c4ccc(C)cc4)nn3c2C)cc1 | inconclusive [activator, partial curve] | 
CN1CCN(c2csc3ccc(F)cc3c2=O)CC1 | inconclusive [activator, partial curve, poor fit] | 
